About 540 (0.36%) of roughly 150,000 compounds showed an effect of 50% or more. The list shows a part of the results.

The experiment deals with Plasmodium falciparum. Description: Primary screen in NF54 nanoGlo assay, in single point, at 2uM, 72h; a lower Z score goes with more inhibition. Particulars: timepoint 72 hour. The format is functional, Erythrocyte.
As for `Cc1cccc(N2CCN(C(=O)CCC3=Nc4cc(C(F)(F)F)ccc4S(=O)(=O)N3)CC2)c1C`, the “% Inhibition” value was 36% and the Z score is -4.07.
For `O=C(NC[C@H](O)c1c(Cl)cccc1Cl)c1cnn2ccncc12`, in that order: 3% and -0.33.
With `O=C(c1ccc2nsnc2c1)N1CCc2oncc2C1`, the “% Inhibition” value is reported as -10% and the Z score is recorded as 1.56.
Turning to `COc1ccc(OC)c2sc(N3CCN(C(=O)c4cc(C)on4)CC3)nc12`, the “% Inhibition” value was -3% and the Z score is given as 0.39.
Taken in the same sequence, the figures for `CN(C)c1ncc(C=Cc2ncc(C(=O)O)s2)n1C` were 5% and -0.5.
For `COC(=O)C1=C(C)OC(=O)[C@]1(NC(=O)c1ccc(Cl)cc1Cl)C(F)(F)F`, in that order: -7% and 1.02.
For `Cc1cncc(OCc2ccccc2C)n1`, the “% Inhibition” value was 6% and the Z score was -1.18.
Turning to `OCCn1ncnc1Cc1cc(F)cc(Cl)c1`, the “% Inhibition” value is reported as -5% and the Z score was 0.53.
For `Cc1ccc(NC(=O)N2CCC[C@@]3(CCOC3)C2)cc1`, in that order: -3% and 0.31.
Turning to `Cc1cc(NC(=O)CON=C(N)Cc2ccccc2Cl)no1`, the “% Inhibition” value is reported as -3% and the Z score turned out to be 0.46.
Taken in the same sequence, the figures for `CC(=O)Nc1ccc(S(=O)(=O)N2CCc3c(c(CN(C(C)=O)c4ccccc4)nn3C)C2)cc1` were -14% and 2.45.
In the case of `COCCn1cnnc1CNC(=O)Cc1cccs1`, the “% Inhibition” value is on record as -4% and the Z score stood at 0.8.
Taken in the same sequence, the figures for `C(=Cc1ccnn1CC1CC1)c1nccs1` were 17% and -2.22.
For `O=C(c1ccccc1)c1ccc2n1CC[C@H]2C(=O)Nc1cccc(Cl)c1F`, in that order: -1% and 0.17.
Taken in the same sequence, the figures for `CCN1CC2(CCN(Cc3cc(C)no3)CC2)C[C@@H](c2ccccc2)C1=O` were -5% and 0.7.
For the compound `CCCN1CCC(NC(=O)c2cn(Cc3c(F)cccc3F)nn2)CC1`, the “% Inhibition” value was 0% and the Z score is reported as -0.02.
Taken in the same sequence, the figures for `Cc1cc(C)cc(N2CCC(N3CCn4nc(C(=O)O)cc4C3)CC2)c1` were -7% and 0.94.
For `CCn1c(-c2cc(NC(=O)CCc3ccccc3)[nH]n2)cc2ccccc21`, in that order: 3% and -0.41.
Consider `O=C(N[C@H](c1ccccc1)C1CC1)N1CCN(S(=O)(=O)c2cccc(F)c2)CC1`, for which the “% Inhibition” value is given as 36% and the Z score is -4.7.
For `COCCCn1ccnc1-c1ccc2nonc2c1`, in that order: 2% and -0.27.
Taken in the same sequence, the figures for `Cc1nnc(C)c2c(C)n(-c3ccc4c(c3)OCO4)c(C)c12` were -6% and 0.92.
On to `COc1ccc(CCNC(=O)c2noc(C)c2CN2CCOCC2)cc1OC`, for which the “% Inhibition” value is on record as -22% and the Z score came out at 2.25.
Taken in the same sequence, the figures for `COc1cccc(C)c1C(=O)N1CCCNC(=O)C1` were -16% and 2.02.
Turning to `COCC(=O)N1CCC(COc2ncnc(C)c2C)CC1`, the “% Inhibition” value was -11% and the Z score was determined as 1.23.
Taken in the same sequence, the figures for `C[C@H](NC(=O)NCc1ncnn1C)c1cc(F)c(F)c(F)c1` were -5% and 0.74.
Regarding `Cc1ccn(CCC(=O)NCc2ccc3c(c2)OCO3)n1`, the “% Inhibition” value is on record as -2% and the Z score came to 0.19.
For `OCC1CN(c2nc3cc(F)ccc3o2)C1`, in that order: -11% and 0.92.
For `Cc1cccc(-n2cnc3cc(C(=O)N4CCO[C@H](C)[C@H]4C(N)=O)ccc32)c1`, in that order: 4% and -0.61.
Taken in the same sequence, the figures for `CCOCCn1c(=O)n(Cc2cn(C)nc2C)c2cc(C(=O)OC)cnc21` were -10% and 1.55.
Regarding `CCCN(CC(=O)NC)S(=O)(=O)c1c(Cl)cc(C)c(O)c1C`, the “% Inhibition” value is reported as -9% and the Z score amounted to 1.7.
Taken in the same sequence, the figures for `COc1ccc(-c2ccc(N3CCCN(C(=O)CN(C(=O)c4cccc(OC)c4)C(C)C)CC3)nn2)cc1` were 10% and -1.38.
For `Cc1ccc(OCCC(=O)N2CCC[C@H]2c2ccon2)cc1C`, in that order: -10% and 1.34.
Consider `CCN(Cc1ccc(C)o1)Cc1[nH]cc(C)c(=O)c1C`, for which the “% Inhibition” value is reported as -13% and the Z score was determined as 1.38.
Turning to `CCc1ccc([C@@H]2COCCN2c2c(C#N)c(=O)n(C)c(=O)n2C)o1`, the “% Inhibition” value was -1% and the Z score is recorded as 0.08.
As for `COc1cc(NC(=O)C(c2ccccc2)c2ccccc2)ccc1NC(=O)c1ccccc1Cl`, the “% Inhibition” value is on record as -10% and the Z score was 1.26.
Take `CC1(C)CCC(Nc2ccc(C(N)=O)nn2)CC1`: the “% Inhibition” value amounted to 77% and the Z score is -11.08.
For `CCNc1ncc(C(=O)N2CCCN(C(=O)[C@@H]3CCCO3)CC2)cn1`, the “% Inhibition” value is recorded as -2% and the Z score was 0.4.
Consider `COc1cccc(C(C)NCC2CN(C(=O)c3ccccc3)C3CCN2C3)c1` (centres undefined), for which the “% Inhibition” value is -7% and the Z score came out at 0.75.
Taken in the same sequence, the figures for `O=C(C1CCN(c2cnc3nccnc3c2)CC1)N1CCC(Cc2ccccc2)CC1` were 6% and -1.08.
For `CN1CCC[C@@H]1CCn1ccnc1C1CCCCC1`, in that order: 7% and -0.97.
Turning to `CN(C)S(=O)(=O)N1C[C@H]2CC[C@@H](C1)N(C(=O)c1ccc(F)c(F)c1)C2`, the “% Inhibition” value was -2% and the Z score turned out to be 0.44.
Taken in the same sequence, the figures for `CCc1nc(-c2cccc(NC(=O)CCC3CCCC3)c2)no1` were -9% and 1.53.
`Cc1cccc(NC(=O)c2scc(-c3ccc(F)cc3)c2S(=O)(=O)N(C)c2cccc(F)c2)c1`: the “% Inhibition” value is recorded as -14% and the Z score is 1.55.
As to `COc1cccc(C(=O)Nc2cc(-c3cccnc3)no2)c1`, the “% Inhibition” value is -26% and the Z score was determined as 2.55.
As to `CCOC(=O)N1CCc2c(sc(NCc3c[nH]c4ccccc34)c2C(=O)Nc2ccccc2OCC)C1`, the “% Inhibition” value was determined as 3% and the Z score is listed as -0.55.
Taken in the same sequence, the figures for `O=C(Nc1ccc(Cl)c(Cl)c1)c1ncccn1` were -21% and 3.08.
For `CCc1c(C(=O)N2CCNC[C@H](CC(=O)O)C2)csc1C`, in that order: -11% and 1.45.
With `NC1CC(NCCc2cccc3cccnc23)c2ccccc21` (centres undefined), the “% Inhibition” value amounted to 38% and the Z score was -7.33.
On to `CN(Cc1ccc(-n2cccn2)cc1)C(=O)N[C@H]1C[C@H]2C(=O)NCC(=O)N2C1`, for which the “% Inhibition” value is on record as -18% and the Z score is 2.41.
For `CCN(CC)C(=O)CCc1c(C)nn(-c2ccccc2C)c1Oc1cccc(C)c1`, in that order: -4% and 0.59.
For `O=C(NCc1ccc(F)c(Cn2ccnc2)c1)N1CCC(O)CC1`, in that order: -17% and 2.35.
Taken in the same sequence, the figures for `CN(CC1(CO)CCC1)C(=O)CCC(F)(F)F` were -9% and 1.41.
With `O=C(Nc1cccc2c1CCCC2)N(CCO)Cc1nccs1`, the “% Inhibition” value is 1% and the Z score is on record as -0.22.
For `Cc1ccc(OCC(=O)OCCN2CCCC2=O)cc1C`, in that order: -11% and 0.93.
For `C[C@@H]1CN(C(=O)NCCN2C(=O)Cc3ccccc32)C[C@H](C)O1`, the “% Inhibition” value is recorded as -12% and the Z score is 2.12.
`C[C@H]1C(=O)Nc2ccccc2CN1C(=O)Nc1cnn(CC2CC2)c1`: the “% Inhibition” value was -9% and the Z score is 1.82.
Turning to `O=C(c1ccc2nnnn2c1)N1CCN(c2ccc3[nH]ncc3c2)C(=O)C1`, the “% Inhibition” value is -3% and the Z score was determined as 0.65.
`Cc1ccccc1OC1(C(=O)O)CCN(C(=O)[C@H]2CC23CCC3)CC1`: the “% Inhibition” value is on record as 2% and the Z score was -0.32.
Take `COc1ccc(OCC(=O)NCCn2cc(C(=O)Nc3cccc(OC)c3)nn2)cc1`: the “% Inhibition” value is -17% and the Z score worked out at 2.39.
Take `Cc1nccc(-c2ccccc2)c1C(=O)N1C[C@H]2C[C@H](O)[C@H](O)C[C@H]2C1`: the “% Inhibition” value came to 1% and the Z score is -0.27.
`O=C(NCc1ccc(-c2ccoc2)o1)C1CCCC1`: the “% Inhibition” value is reported as 11% and the Z score is on record as -1.57.
Consider `CC(C#N)CNC(=O)C1CCCC1C(=O)NCC(C)C#N` (centres undefined), for which the “% Inhibition” value is recorded as 3% and the Z score is given as -0.48.
Regarding `Cc1ccc(-n2nnc(-c3nc(C)c(C(=O)NCc4ccccc4)s3)c2C)cc1`, the “% Inhibition” value is listed as -7% and the Z score turned out to be 1.23.
Turning to `Cn1cc(C(=O)N2N=CC[C@]2(O)C(F)(F)F)cn1`, the “% Inhibition” value was 45% and the Z score was -6.51.
Taken in the same sequence, the figures for `CC1C(Cc2ccccc2)CCN1C(=O)C1(S(C)(=O)=O)CCC1` (centres undefined) were 0% and 0.03.
Taken in the same sequence, the figures for `O=C(NCC1(c2c(F)cccc2F)CCCC1)c1ccc(=O)[nH]n1` were 3% and -0.54.
`CC[C@H]1COCCN1C(=O)c1n[nH]c(N)c1Cl`: the “% Inhibition” value is 5% and the Z score was -0.66.
For `Cc1cccc2c1nc1n2[C@@H](CNC(=O)Nc2ccccc2)COC1`, in that order: 14% and -1.62.
For `COC(C(=O)OC(C)C(=O)N(C)C)c1ccccc1` (centres undefined), in that order: -3% and 0.25.
`CN(C)S(=O)(=O)CCCN1CCCC[C@@H]1CCc1ccccn1`: the “% Inhibition” value amounted to 1% and the Z score is given as -0.13.
In the case of `CC(C(=O)NC1CCC(=O)N(C)C1)c1ccccc1` (centres undefined), the “% Inhibition” value is given as -11% and the Z score was determined as 1.63.
On to `O=C(c1ccsc1)N1CC[C@H](Oc2cc(C(F)(F)F)ccn2)C1`, for which the “% Inhibition” value is on record as -5% and the Z score was found to be 0.91.
With `CCCCCOCC(=O)N1CC[C@H](c2ncc[nH]2)C1`, the “% Inhibition” value is on record as -5% and the Z score stood at 0.56.
Consider `Cc1ncsc1CN1CCCCCCCC1=O`, for which the “% Inhibition” value was 2% and the Z score is on record as -0.3.
For `O=S(=O)(Nc1ccc(F)cc1)c1ccc2c(c1)-c1oncc1CO2`, in that order: -11% and 1.6.
Taken in the same sequence, the figures for `COCc1nc(CNc2nc3c(s2)c(C)nn3C)no1` were -13% and 2.25.
Taken in the same sequence, the figures for `CCC1(CC)CN(CC[C@H]2CCOC2)CCO1` were -5% and 0.43.
For `Cc1occc1C(=O)Nc1cccc2ncccc12`, the “% Inhibition” value is reported as -8% and the Z score is on record as 1.13.
With `C[C@@H](CN1CCCC1)c1nc(C2CC2)nn1CCO`, the “% Inhibition” value is -4% and the Z score was found to be 0.73.
Turning to `COc1ncccc1C(=O)NCc1nc(C)cs1`, the “% Inhibition” value was -14% and the Z score was 2.69.
Taken in the same sequence, the figures for `O=C(C#Cc1ccccc1)N1CCO[C@H](c2ccco2)C1` were 0% and -0.02.
For `COCCCN1C(=O)CC(CC(=O)N2CCC[C@H]2CO)(c2ccccc2Cl)C1=O` (some centres undefined), in that order: -13% and 1.74.
Turning to `O=C(CCc1cccnc1)Nc1nc(-c2cccc3ccccc23)cs1`, the “% Inhibition” value was -20% and the Z score was 2.33.
Taken in the same sequence, the figures for `Cc1cccc(-c2ocnc2C(=O)N2CCC[C@@H]2CCc2noc(C)n2)c1` were 1% and -0.13.
For `CCCNCc1ccc(OC(F)F)cc1`, in that order: -2% and 0.22.
Turning to `Cc1nn(C)c(C)c1CNC(=O)Cc1nnc(O)c2ccccc12`, the “% Inhibition” value is recorded as -1% and the Z score was found to be 0.13.
`Cc1oc(C)c(C(=O)Nc2nnc(C3CC3)s2)c1C`: the “% Inhibition” value is -12% and the Z score is recorded as 1.21.

Broadly, the % Inhibition is the drop in the measured response relative to a control, in per cent.

The values are drawn from ChEMBL document CHEMBL4888484, “Replenishing the malaria drug discovery pipeline: Screening and hit evaluation of the MMV Hit Generation Library 1 (HGL1) against asexual blood stage Plasmodium falciparum ,using a nano luciferase reporter read-out” (2022).
